Assay results as given in PubChem BioAssay AID463173 (ICCB-Longwood Screening Facility, Harvard Medical School, 2010).
In all, about 52,000 compounds went through this assay and about 4,300 (8.3%) were called active. Cut-off read from the data, not from the text of the source: active = survival mostly below about 52% (no sharp cut-off); inactive = mostly above about 56%. This is one part of the list.

The molecules below were run on DeltatarO mutant (assay: S. aureus survival, RN4220 and DeltatarO strains – OD600, teichoic acid synthesis inhibitors, primary screen (AID 463173)). Conditions: S. aureus RN4220 wild type/DeltatarO growth, OD600, 18 h, stronger effect = lower value, screened at 18.75 µg/mL (by protocol).

Row | SMILES | survival
1 | CC(C)N(C(=O)N1CCC(c2ccccc2F)CC1)C(C)C | inactive: 87%
2 | COc1ccc(NC(=O)c2ccc(-c3nc(CSc4ccc(C)cc4)c(C)o3)cc2)cc1Cl | inactive: 64%
3 | O=C(Nc1ccc(C(=O)N2CCN(c3cccc(Cl)c3)CC2)cc1)c1nsc2ccccc12 | inactive: 79%
4 | CCCCCN1C(C(=O)c2ccccc2)=C(NC(=O)c2ccc(OC)cc2)c2ccccc2S1(=O)=O | inactive: 57%
5 | COc1ccc(-n2c3c(c(=O)[nH]c2=O)C(NC(=O)c2ccccc2Cl)(C(F)(F)F)C(=O)N3)cc1 (configuration not stated) | inactive: 55%
6 | COc1cccc(C(=O)NCc2ccc3c(c2)CCN3C(=O)c2ccncc2)c1 | inactive: 73%
7 | COc1ccc(-c2[nH]c(-c3cccc(OC)c3)nc2SCC(=O)Nc2ccc3c(c2)OCO3)cc1 | inactive: 55%
8 | COc1ccccc1-c1nc(SCC(=O)c2ccccc2)n[nH]1 | active: 53%
9 | Cc1cc(C)cc(OCC(=O)Nc2nc3c(s2)CC(C(C)(C)C)CC3)c1 (configuration not stated) | inactive: 107%
10 | CCOC(=O)CC(NC(=O)CCc1c(C)nc2c(c(C)nn2-c2ccc(C)c(C)c2)c1C)c1ccc(C)cc1 (configuration not stated) | inactive: 105%
11 | Cc1cccc(-n2ncc(C(=O)N3CCN(C4CCCCC4)CC3)c2C2CCN(C(=O)OC(C)(C)C)CC2)c1 | inactive: 94%
12 | COc1ccc(OC)c2sc(NC(=O)c3ccc(S(=O)(=O)N4CCCC4)cc3)nc12 | inactive: 118%
13 | O=C(c1ccc(N2CCOCC2)cc1)c1cccs1 | inactive: 98%
14 | CCc1nnc(NC(=O)c2nc(S(=O)(=O)Cc3ccc(C)cc3)ncc2Cl)s1 | active: 42%
15 | Cc1cc(C)c(NC(=O)C(C)n2c(=O)c(C(F)(F)F)nc3ccccc32)c(C)c1 (configuration not stated) | inactive: 95%
16 | COC(=O)c1ccc(CSc2nc(-c3ccco3)cc(C(F)(F)F)n2)o1 | inactive: 84%
17 | CCC(=O)N1CCc2cc(S(=O)(=O)NC(C(=O)NCCc3ccccc3)C(C)C)ccc21 (configuration not stated) | inactive: 86%
18 | CCN(c1ccccc1)c1nnc(NC(=O)Nc2ccc(Br)cc2)s1 | inactive: 86%
19 | Cn1cnc(S(=O)(=O)N2CCC(C(=O)NCc3ccccc3Cl)CC2)c1 | inactive: 118%

Row | SMILES | survival
20 | Cc1ccc(C(=O)CC2(O)C(=O)N(Cc3ccccc3F)c3ccccc32)cc1 (configuration not stated) | inactive: 60%
21 | COc1cccc(NC(=O)CSc2nc3ccc(NC(=O)c4cccs4)cc3s2)c1 | inactive: 65%
22 | Cc1ccc(NC(=O)Nc2nnc(N3CCCC3)s2)cc1 | inactive: 90%
23 | CC(=O)N1CCOc2cc(S(=O)(=O)NC(C)c3ccccc3)c(Cl)cc21 (configuration not stated) | inactive: 80%
24 | Cc1cccc(C(=O)Nc2sc3c(c2C(=O)N2CCCCC2)CCC(C)C3)c1 (configuration not stated) | active: -6%
25 | CCN(CC)CCNC(=O)c1c(C)oc2ncn(C)c(=O)c12 | inactive: 91%
26 | O=C(CCc1cn(Cc2ccc(F)cc2)c2ccccc12)NCCc1ccc(Cl)cc1 | inactive: 71%
27 | COc1ccc(NC(=O)C(c2ccc(C)cc2)N(C)C(=O)/C=C\c2ccc3c(c2)OCO3)cc1 (configuration not stated) | inactive: 66%
28 | O=S(=O)(NCc1csc(-c2ccccc2)n1)c1cccc(F)c1 | inactive: 79%
29 | Cc1ccc(CN(Cc2ccco2)C(=O)COc2ccccc2C)cc1 | active: 40%
30 | COc1cccc(C2=C(C(C)=O)Sc3nncn3N2C(C)=O)c1 | inactive: 102%
31 | CCOC(=O)c1ccc(NC(=O)CCc2c(C)nc3c(c(C)nn3-c3ccccc3)c2C)cc1 | inactive: 57%
32 | CC(C)CNC(=O)c1cc2sccc2n1Cc1ccccc1 | inactive: 105%
33 | CC(C)C(=O)Nc1ccc(N2CCN(C(=O)c3ccccc3)CC2)cc1 | inactive: 101%
34 | CNS(=O)(=O)c1cn(CC(=O)N2CCN(c3ccccc3F)CC2)cc1S(=O)(=O)NC | inactive: 71%
35 | CCOc1ccc(CCNc2ncnc3onc(-c4ccc(Cl)cc4)c23)cc1OCC | inactive: 60%
36 | COCc1nc2cccnc2n1C1CCN(S(=O)(=O)N(C)C)CC1 | inactive: 93%
37 | CCOC(=O)C1NC(=O)CC1c1ccccc1 (configuration not stated) | inactive: 99%
38 | CC(C)(C)c1ccc(Cn2c(Cc3ccccc3)nc3ccccc32)cc1 | active: 0%

Row | SMILES | survival
39 | Cc1nn2c(=O)cc(CN(C)c3ccccc3)nc2s1 | inactive: 135%
40 | CCOC(=O)c1ccccc1NC(=O)CSc1ncc(CO)n1Cc1ccc(C)cc1 | inactive: 77%
41 | O=C(Cn1c(SCc2cccc(F)c2)nc2cccnc21)Nc1ccc(F)c(Cl)c1 | inactive: 77%
42 | O=C(NCCO)c1ccc2c(c1)OCO2 | inactive: 82%
43 | CC(=O)c1ccc(NC(=O)CCc2c(C)nc3c(c(C)nn3-c3ccc(C)cc3)c2C)cc1 | inactive: 59%
44 | COc1ccccc1NC(c1ccc(Cl)cc1)c1nnc(-c2cccc(F)c2)o1 (configuration not stated) | inactive: 59%
45 | COc1cccc(-c2nn(C)c3sc(C(=O)NCc4cc(OC)ccc4OC)cc23)c1 | inactive: 68%
46 | O=C(CN1CCN(Cc2ccc(F)cc2)C1=O)NCc1ccccc1Cl | inactive: 83%
47 | C=CCn1c(N)cc(=O)nc1SCC(=O)NC(C)c1ccccc1 (configuration not stated) | inactive: 95%
48 | O=C1CCCN1CN1CCN(CN2CCCC2=O)CC1 | inactive: 106%
49 | COC(=O)c1ccccc1NC(=O)C1=CC(c2ccc(C)cc2)=NS(=O)(=O)N1C | inactive: 65%
50 | CN(C1CCCCC1)S(=O)(=O)c1ccc(S(=O)(=O)N(Cc2ccccn2)Cc2ccco2)cc1 | inactive: 68%
51 | O=C(CCS(=O)(=O)c1nc(-c2cccs2)cc(C(F)(F)F)n1)Nc1ccc(OC(F)(F)F)cc1 | inactive: 90%
52 | COc1ccc(-c2cn3c(n2)sc2cc(C(=O)Nc4ccc(C)c(C)c4)ccc23)cc1 | inactive: 64%
53 | Cc1cccc(N2CCN(C(=O)CCc3nnc4n(CC(C)C)c(=O)c5ccccc5n34)CC2)c1C | inactive: 74%
54 | O=C(Cc1ccccc1)N(Cc1cccnc1)c1nc2c(F)cc(F)cc2s1 | inactive: 65%
55 | CC(C)N(C=O)C1(C(=O)NC2CCCCC2)CCCCC1 | inactive: 93%
56 | CC(C)c1ccc(OCC(=O)NC(Cc2c[nH]c3ccccc23)C(=O)O)cc1 (configuration not stated) | active: 42%
57 | CCOC(=O)c1c(C)oc2ccc(N(C(=O)Oc3ccccc3)S(=O)(=O)c3ccc(CC)cc3)cc12 | inactive: 55%
